Assay results reported in the supplement of paper PMC5895741.

B1: MS2 coat protein; the commonest letter at each place (parent)
chain: MASNFTQFVLVDNGGTGDVTVAPSNFANGVAEWISSNSRSQAYKVTCSVRQSSAQNRKYTIKVEVPKVATQTVGGVELPVAAWRSYLNMELTIPIFATNSDCELIVKAMQGLLKDGNPIPSAIAANSGIY

Variants of: B1
Test: apparent fitness score (VLP assembly selection enrichment vs plasmid library) (log10 ratio); higher = better expression / assembly into well-formed VLPs
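Note: counts from Illumina MiSeq reads, cDNA of packaged RNA versus plasmid DNA taken before selection, each replicate independent from library construction onward, expression induced with 0.1% arabinose.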

Apparent fitness score (log10) of substitutions, site by site:
P120: D < -4, N < -4, Q < -4, W -1.3, Y < -4, K -1.41, M -0.331, G < -4, E -0.891, S -0.526, I < -4, F -0.749, C -0.0255, R < -4, H < -4, V -0.678, A 0.17, L -1.73, T < -4
A122: W < -4, K -0.804, T < -4, P < -4, R -1.46, Q < -4, D < -4, N -1.47, G -1.04, L -1.35, C 0.577, H < -4, M -0.452, V < -4, Y -1.53, I -0.851, E < -4, S -1.5, F -0.653
S127: E -1.37, D < -4, N < -4, K -0.315, L -0.359, A 0.0457, P < -4, M < -4, C -1.31, G 0.604, H 0.943, F < -4, I < -4
D115: F -0.819, M < -4, C -1.28, E 0.841, Y 0.0219, S 0.866, Q 0.772, K 0.718, G -0.0736, L -0.718, R 0.476, T 1.04, N 1.04, P 0.76, I < -4, H 0.976, W 0.443, V -0.909
A125: F -0.576, C 0.705, N 0.59, S 0.596, L 0.747, H 0.643, E < -4, G -0.201, I < -4, T 0.662, V 0.512, R 1.08, Y < -4, M 1.22, Q 0.756, P < -4, W -1.5, D -0.929, K 0.689
L113: V 0.448, N < -4, S < -4, I 0.66, D < -4, P -1.1, G -1.09, A -1.43, T 0.626, F -0.201, H -0.641, R -1.29, C 0.133, Q < -4, M 0.726, E < -4, W 0.767, K -1.55, Y 0.107
I123: M -0.349, Q 0.151, R -0.596, D < -4, G -1.53, F < -4, W -0.682, S < -4, T < -4, V < -4, N < -4, H < -4, Y < -4, K 0.452, A < -4, L -1.28, C -1.1, P < -4, E -1.37
M109: Y -1.03
Q110: T < -4, E < -4, N < -4, R 0.54, Y < -4, P < -4, A -1.04, W -1.01, V -0.521, K < -4, H 0.639, C -1.03, S -1.24, G -0.745, L -1.1, D < -4, I < -4, M -0.304, F -1.34
N126: V < -4, D -0.896, W -1.03, G -1.44, H < -4, I < -4, T -1.02, M < -4, F -1.38, C < -4, Y < -4, K < -4, P < -4, E < -4, A < -4, R -0.929, S -1.37, Q < -4, L -1.08
G116: Q < -4, D -0.668, V -1.1, R -1.5, S -1.37, A < -4, C -1.33, T -0.501, N < -4, P -0.139, Y -1.6, L < -4, K -2, F -1.37, W -0.771, H < -4, I -1.07, E < -4, M -1.17
G111: M < -4, R -0.927, C -0.628, F -1.46, W < -4, K < -4, T < -4, D -0.203, P < -4, A -0.935, I < -4, E < -4, S -1.38, H < -4, L < -4, Y < -4, N < -4, V -1.5, Q < -4
P118: D -0.15, E < -4, M < -4, A -1.03, N < -4, L 0.427, H < -4, K -0.762, W 0.183, C -0.663, V < -4, Q 0.151, G -1.18, S -0.241, T -0.0849, R -1.41, F -1.29
A124: C 0.585, K 0.146, E -0.201, R -1.09, N < -4, G 0.703, Q 0.215, I -0.935, M -0.402, W -0.548, D < -4, F -1.53, T -0.725, S 0.991, L -1.77, V -0.488, P < -4, H -0.81, Y -1.41
S121: I 0.464, W -1.19, A 0.648, K -0.00271, R 0.29, L 0.903, M 0.805, V 0.554, G 0.776, E 0.837, P < -4, Q 0.758, H -0.643, N -0.418, Y < -4, D 0.667, T 0.515, F -1.69, C 1.13
K114: Q 0.579, R 0.737, P < -4, N 0.32, L < -4, E -1.33, F < -4, G -0.76, W -0.635, S 0.546, C -0.59, V -0.548, D < -4, H 0.695, A 0.882, I -0.223, T -0.217, Y -0.118, M < -4
L112: E < -4, R -0.948, G -0.862, S -1.56, W < -4, Q < -4, P -0.824, Y -1.51, A -0.901, K < -4, C 0.639, M 0.807, D -1.37, H < -4, V 0.899, N -0.925, T -0.0785, I 1.1, F -0.754
I119: N 0.373, E -0.987, H -0.452, S -1.6, R -1.51, Y < -4, K -0.333, D -0.942, T -0.141, G -0.984, Q -0.773, L -1.2, F -0.684, A -1.33, W < -4, C < -4, M < -4, V 0.658, P < -4
N117: Y -0.817, Q -0.00255, R -0.997, M < -4, H 1.03, E -1.12, S -0.212, G -1.09, V -0.58, C < -4, T -0.361, A 0.73, F -1.49, K -0.428, I -0.771, P < -4, L -0.911, D 0.0654, W -0.215
